Experimental data reported in PMC4336329 (PLoS ONE, 2015).
Among all 310,000 compounds or so, about 14,000 (4.5%) showed an effect of 50% or more. The effect is printed as a negative number. The list shows a part of the results.

Each compound was assayed against human ether-à-go-go-related gene (hERG) potassium channel (human, UniProt Q12809) (assay: primary screen, population patch clamp on CHO cells stably expressing hERG).
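Note: peak tail current of the secondary pulse compared with the same well before compound.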

Sequence of human ether-à-go-go-related gene (hERG) potassium channel (Q12809 whole entry, looked up): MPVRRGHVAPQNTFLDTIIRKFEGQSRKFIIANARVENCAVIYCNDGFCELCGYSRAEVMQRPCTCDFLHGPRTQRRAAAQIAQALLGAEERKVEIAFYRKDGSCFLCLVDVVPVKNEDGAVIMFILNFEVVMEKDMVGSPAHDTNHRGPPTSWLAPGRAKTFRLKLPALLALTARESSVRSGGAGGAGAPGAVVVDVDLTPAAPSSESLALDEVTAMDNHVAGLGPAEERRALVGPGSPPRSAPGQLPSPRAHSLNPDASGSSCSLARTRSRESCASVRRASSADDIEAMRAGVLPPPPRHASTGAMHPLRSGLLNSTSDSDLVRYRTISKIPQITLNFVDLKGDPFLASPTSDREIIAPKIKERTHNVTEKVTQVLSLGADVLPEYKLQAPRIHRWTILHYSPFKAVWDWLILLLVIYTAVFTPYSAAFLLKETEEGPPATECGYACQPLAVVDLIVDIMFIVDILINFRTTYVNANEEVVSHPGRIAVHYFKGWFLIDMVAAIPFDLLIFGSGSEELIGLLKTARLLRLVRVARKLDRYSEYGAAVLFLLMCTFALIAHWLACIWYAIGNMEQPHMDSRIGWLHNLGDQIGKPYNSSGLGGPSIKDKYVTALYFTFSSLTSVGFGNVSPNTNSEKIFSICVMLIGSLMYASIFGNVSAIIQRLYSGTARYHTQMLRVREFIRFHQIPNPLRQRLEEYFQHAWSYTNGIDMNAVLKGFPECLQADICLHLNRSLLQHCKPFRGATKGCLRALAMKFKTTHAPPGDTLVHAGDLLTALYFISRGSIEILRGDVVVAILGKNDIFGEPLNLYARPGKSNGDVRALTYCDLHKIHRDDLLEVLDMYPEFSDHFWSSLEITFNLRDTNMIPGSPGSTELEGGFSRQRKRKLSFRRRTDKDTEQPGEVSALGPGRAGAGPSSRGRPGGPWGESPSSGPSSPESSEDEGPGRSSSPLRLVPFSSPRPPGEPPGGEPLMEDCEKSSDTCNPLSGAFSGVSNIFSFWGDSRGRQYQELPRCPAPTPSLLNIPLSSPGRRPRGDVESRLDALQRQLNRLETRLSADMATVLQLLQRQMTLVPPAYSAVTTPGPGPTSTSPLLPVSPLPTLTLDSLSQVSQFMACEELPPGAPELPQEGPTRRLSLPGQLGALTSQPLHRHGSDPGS

Compound	hERG current change (%, negative = inhibition) at 10uM [%]
O=c1cc(N2CCN(c3ccccc3)CC2)[nH]c(=O)n1C1CCCCC1	4.56
CCc1ccc(OCCCC(=O)Nc2nnc(C3CCCO3)s2)cc1 (centres unmarked)	17.9
CN(C)S(=O)(=O)c1ccc2c(c1)C(CC(=O)O)NC2=O (centres unmarked)	6.72
O=C(CSc1nnc2c(Cl)cc(Cl)cn12)N1CCN(S(=O)(=O)c2ccccc2)CC1	-19.1
O=C(Cc1ccccc1F)Nc1nc(-c2cccnc2)cs1	37
COc1ccc(NC(=O)CSc2nnc(-c3ccncc3)o2)c(OC)c1	9.98
O=C(/C=C/c1ccc(O)c(O)c1)c1ccc(S(=O)(=O)N2CCCCCC2)cc1	27.1
CCC(=O)Nc1cccc(-c2ccc(N3CCCCC3)nn2)c1	0.24
CCCCc1nnc(NC(=O)Cc2ccc(OC)c(S(=O)(=O)N3CCOCC3)c2)s1	5.43
O=C(/C=N/O)Nc1ccccc1	-6.97
Cc1cccc(C)c1NC(=O)CNC(=O)Cc1ccc(Br)cc1	20.9
COc1cc2cc(CN(CCO)S(=O)(=O)c3ccccc3Cl)c(=O)[nH]c2cc1OC	0.98
COc1ccc(NC(=O)C2=C(C)C(=O)OC23CCC(C)CC3)cc1Cl (centres unmarked)	14
CCOc1ccc2c(c1)-c1c(ssc1=S)C(C)(C)N2C	-3.7
COC(=O)c1cc2sccc2n1CC(=O)Nc1cc(OC)cc(OC)c1	7.97
CC(/C=N/NC(=O)c1cc(C2CC2)[nH]n1)=C\c1ccccc1	13.8
COc1cc(NC(=O)C(C)C)ccc1NC(=O)c1ccco1	4.84
COc1cc(/C=C2\SC(=S)N(CCC(=O)NC3CCCC3)C2=O)cc(OC)c1OC	1.81
CC(C(=O)NNS(=O)(=O)c1cccc(C(F)(F)F)c1)n1nnc(N2CCOCC2)n1 (centres unmarked)	-38.4
CCOc1ccc(/C=N/NC(=O)c2c(-c3ccccc3)noc2C)cc1	-3.67

Compound	hERG current change (%, negative = inhibition) at 10uM [%]
Cc1ccc2[nH]c(=O)c(C(c3nnnn3CC3CCCO3)N3CCOCC3)cc2c1 (centres unmarked)	7.56
COc1ccc(NC(=O)CSCC(=O)NCc2ccco2)cc1	1.54
CCNc1nc2c(c(=O)[nH]c(=O)n2C)n1CCCc1ccccc1	8.7
CCS(=O)(=O)c1ccc2c(c1)N(S(=O)(=O)c1ccccc1)CC(C(=O)O)O2 (centres unmarked)	-0.5
COc1cc(O)sc1C=Nc1ccc(Cl)cc1	4.72
O=C(NCCc1csc(-c2ccc(Cl)cc2)n1)c1ccco1	-15
CNC(=O)c1c(N)sc2c1CCCCC2	-3.16
O=C(Nc1cccc(F)c1)NC1CCCCCCC1	7.75
Cc1occc1-c1nnc(SCC(=O)c2ccc(F)cc2)n1Cc1ccco1	-42.6
Cc1cc(C)n(-c2ccc(Cl)c(Cl)c2)n1	7.55
C=CCNc1nc(Nc2ccc(OC)cc2OC)nc(OCC)n1	2.07
CC(=O)Nc1cccc(NC(=S)Nc2cccc(Cl)c2Cl)c1	19.3
COc1ccc(OC)c(-n2c(C)cc(C=O)c2C)c1	14.9
CC(NC(=O)c1ccccc1NC(=O)CSc1nnnn1C)c1ccccc1 (centres unmarked)	-8.38
Cc1cc(/C=N/NC(N)=S)c(C)n1-c1cccc(Cl)c1	-6.12
CCOc1ccccc1NC(=O)CN1C(=O)COc2ccccc21	4.95
CCOc1ccc(/C=N/NC(=O)c2nnn(-c3nonc3N)c2CN(C)C2CCCCC2)cc1	5.09
CN(c1ccccc1)S(=O)(=O)c1cccc(C(=O)NCCc2ccc(O)c(O)c2)c1	-16.3
Cc1ccc(NC(=O)c2nn(C34CC5CC(CC(C5)C3)C4)cc2[N+](=O)[O-])cc1	-5.38
CCOc1ccccc1C(=O)NC1CCN(Cc2ccccc2)CC1	-46.6

Compound	hERG current change (%, negative = inhibition) at 10uM [%]
Cc1ccc(C)c(-n2c(SCC(=O)N3CCC(C(=O)O)CC3)nnc2-c2cccc(Cl)c2)c1	35.2
N#Cc1ccc(-c2csc(NC(=O)/C=C/c3cccs3)n2)cc1	3.52
Cc1c(CN2CCN(CC(C)(C)C)C(CCO)C2)[nH]c2ccccc12 (centres unmarked)	12.2
CCOC(=O)c1c(NC(=O)CSc2nnc(-c3ccccc3)n2CC)sc(C(C)=O)c1C	-31
CCOC(=O)Nc1oc2ccccc2c(=O)c1CN1CCOCC1	7.12
CCOc1ccc(S(=O)(=O)Nc2ccccc2SC)c2cccnc12	-7.98
O=c1nc(-c2ccccc2)nc(-c2ccccc2)[nH]1	10
O=C1CC(c2ccccc2Br)c2cc3c(cc2N1)CCC3 (centres unmarked)	3.46
COC(=O)c1cc(C(=O)NC(C)C2CC3CCC2C3)cc([N+](=O)[O-])c1 (centres unmarked)	-39.9
Cc1nc(-c2ccc(NC(=O)C3CC3)cc2)cs1	20.8
O=C(Nc1nccs1)c1cc(Cl)nc2ccccc12	11.4
CCn1c(=O)c2cc(C(=O)N(C)c3ccccc3F)sc2c2ccccc21	-14.1
COc1ccccc1C(C)NCC(=O)NCc1ccc(C)cc1 (centres unmarked)	-16.1
CC(=O)N1c2ccc(S(=O)(=O)N3CCC(C(=O)NC4CCC(C)CC4)CC3)cc2CC1C (centres unmarked)	17.3
CC(C)Oc1ccc(CCN=C(N)N=C(N)N)cc1Cl.Cl	18.9
O=C(CCN1CCCCC1c1cccnc1)NCc1ccccc1 (centres unmarked)	2.82
NC(=O)CSc1nnc2ccc(-c3ccco3)nn12	7.7
Cc1ccc(NC(=O)Nc2cccnc2)cc1Cl	-13
CC(C)(C)C(=O)Nc1nnc(SCc2ccc(F)cc2)s1	-24.2
